Laboratory results from patent US20230002488A1.

T1: MICA on MDA-MB-231 cells (human), Q29983
T1 chain: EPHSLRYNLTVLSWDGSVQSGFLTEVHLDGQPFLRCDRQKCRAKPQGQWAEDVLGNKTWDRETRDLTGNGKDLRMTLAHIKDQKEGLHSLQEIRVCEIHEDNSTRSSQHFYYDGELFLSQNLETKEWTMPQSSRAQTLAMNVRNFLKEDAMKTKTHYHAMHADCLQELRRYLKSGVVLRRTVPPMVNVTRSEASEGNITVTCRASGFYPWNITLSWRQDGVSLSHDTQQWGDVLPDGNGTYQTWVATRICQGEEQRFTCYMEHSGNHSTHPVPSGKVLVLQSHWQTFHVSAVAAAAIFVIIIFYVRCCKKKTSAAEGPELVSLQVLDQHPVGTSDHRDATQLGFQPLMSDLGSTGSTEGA

B1: SI-49P7 (protein)
heavy: EIVMTQSPSTLSASVGDRVIITCQASESISSWLAWYQQKPGKAPKLLIYEASKLASGVPSRFSGSGSGAEFTLTISSLQPDDFATYYCQGYFYFISRTYVNSFGCGTKLTVLGSTGSGSKPGSGEGSTKGEVQLVESGGGLVQPGGSLRLSCTASGFTISTNAMSWVRQAPGKCLEWVGVITGRDITYYASWAKGRFTISRDTSKNTVYLQMNSLRAEDTAVYYCARDGGSSAITSNNIWGQGTLVTVSTGGGGSGGGGSFLNSLFNQEVQIPLTESYCGPCPKNWICYKNNCYQFFDESKNWYESQASCMSQNASLLKVYSKEDQDLLKLVKSYHWMGLVHIPTNGSWQWEDGSILSPNLLTIIEMQKGDCALYASSFKGYIENCSTPNTYICMQRTVASTKGPSVFPLAPSSKSTSGGTAALGCLVKDYFPEPVTVSWNSGALTSGVHTFPAVLQSSGLYSLSSVVTVPSSSLGTQTYICNVNHKPSNTKVDKRV[sequence of human IgG1 Fc with L234A L235A N297A K322A (EU numbers) not given]GGGGSGGGGSEVQLLESGGGLVQPGGSLRLSCAASGFSFSSGYDMCWVRQAPGKCLEWIACIAAGSAGITYDANWAKGRFTISRDNSKNTLYLQMNSLRAEDTAVYYCARSAFSFDYAMDLWGQGTLVTVSSGGGGSGGGGSGGGGSGGGGSDIQMTQSPSTLSASVGDRVTITCQASQSISSHLNWYQQKPGKAPKLLIYKASTLASGVPSRFSGSGSGTEFTLTISSLQPDDFATYYCQQGYSWGNVDNVFGCGTKVEIKGGGGSGGGGSGREGPELSPDDPAGLLDLRQGMFAQLVAQNVLLIDGPLSWYSDPGLAGVSLTGGLSYKEDTKELVVAKAGVYYVFFQLELRRVVAGEGSGSVSLALHLQPLRSAAGAAALALTVDLPPASSEARNSAFGFQGRLLHLSAGQRLGVHLHTEARARHAWQLTQGATVLGLFRVTPEIPAGLGSTGSGSKPGSGEGSTKGREGPELSPDDPAGLLDLRQGMFAQLVAQNVLLIDGPLSWYSDPGLAGVSLTGGLSYKEDTKELVVAKAGVYYVFFQLELRRVVAGEGSGSVSLALHLQPLRSAAGAAALALTVDLPPASSEARNSAFGFQGRLLHLSAGQRLGVHLHTEARARHAWQLTQGATVLGLFRVTPEIPAGLGGGGSGGGGSREGPELSPDDPAGLLDLRQGMFAQLVAQNVLLIDGPLSWYSDPGLAGVSLTGGLSYKEDTKELVVAKAGVYYVFFQLELRRVVAGEGSGSVSLALHLQPLRSAAGAAALALTVDLPPASSEARNSAFGFQGRLLHLSAGQRLGVHLHTEARARHAWQLTQGATVLGLFRVTPEIPAGL
light: ENVLTQSPASLSASPGERVTITCSASSSVSYMHWYQQKPGQAPKLWIYDTSKLASGVPSRFSGSGSGNDHTLTISSMEPEDFATYYCFQGSVYPFTFGQGTKLEIKGSTGSGSKPGSGEGSTKGQVTLKESGPGLVQPGQTLRLTCAFSGFSLSTSGMGVGWIRQPPGKGLEWLAHIWWDDDKRYNPALKSRLTISKDTSKNQVYLQMNSLDAEDTAVYYCARMELWSYYFDYWGQGTLVTVSSGGGGSGGGGSGGGGSFLNSLFNQEVQIPLTESYCGPCPKNWICYKNNCYQFFDESKNWYESQASCMSQNASLLKVYSKEDQDLLKLVKSYHWMGLVHIPTNGSWQWEDGSILSPNLLTIIEMQKGDCALYASSFKGYIENCSTPNTYICMQRTVRTVAAPSVFIFPPSDEQLKSGTASVVCLLNNFYPREAKVQWKVDNALQSGNSQESVTEQDSKDSTYSLSSTLTLSKADYEKHKVYACEVTHQGLSSPVTKSFNRGEC
B2: SI-55P10 (antibody, human IgG1, kappa)
heavy: EIVLTQSPSTLSVSPGERATFSCRASQSIGTNIHWYQQKPGKPPRLLIKYASESISGIPDRFSGSGSGTEFTLTISSVQSEDFAVYYCQQNNNWPTTFGPGTKLTVLGGGGSGGGGSGGGGSGGGGSQVQLQQSGPGLVKPSETLSITCTVSGFSLTNYGVHWIRQAPGKGLEWLGVIWSGGNTDYNTPFTSRFTITKDNSKNQVYFKLRSVRADDTAIYYCARALTYYDYEFAYWGQGTLVTVSSGGGGSGGGGSEVQLVESGGGLVQPGGSLRLSCAASGFTISTNAMSWVRQAPGKGLEWIGVITGRDITYYASWAKGRFTISRDNSKNTLYLQMNSLRAEDTAVYYCARDGGSSAITSNNIWGQGTLVTVSSASTKGPSVFPLAPSSKSTSGGTAALGCLVKDYFPEPVTVSWNSGALTSGVHTFPAVLQSSGLYSLSSVVTVPSSSLGTQTYICNVNHKPSNTKVDKRV[sequence of human IgG1 Fc with changes not given]GGGGSGGGGSEVQLLESGGGLVQPGGSLRLSCAASGFSFSSGYDMCWVRQAPGKGLEWIACIAAGSAGITYDANWAKGRFTISRDNSKNTLYLQMNSLRAEDTAVYYCARSAFSFDYAMDLWGQGTLVTVSSGGGGSGGGGSGGGGSGGGGSDIQMTQSPSTLSASVGDRVTITCQASQSISSHLNWYQQKPGKAPKLLIYKASTLASGVPSRFSGSGSGTEFTLTISSLQPDDFATYYCQQGYSWGNVDNVFGGGTKVEIKGGGGSGGGGSGREGPELSPDDPAGLLDLRQGMFAQLVAQNVLLIDGPLSWYSDPGLAGVSLTGGLSYKEDTKELVVAKAGVYYVFFQLELRRVVAGEGSGSVSLALHLQPLRSAAGAAALALTVDLPPASSEARNSAFGFQGRLLHLSAGQRLGVHLHTEARARHAWQLTQGATVLGLFRVTPEIPAGLGSTGSGSKPGSGEGSTKGREGPELSPDDPAGLLDLRQGMFAQLVAQNVLLIDGPLSWYSDPGLAGVSLTGGLSYKEDTKELVVAKAGVYYVFFQLELRRVVAGEGSGSVSLALHLQPLRSAAGAAALALTVDLPPASSEARNSAFGFQGRLLHLSAGQRLGVHLHTEARARHAWQLTQGATVLGLFRVTPEIPAGLGGGGSGGGGSREGPELSPDDPAGLLDLRQGMFAQLVAQNVLLIDGPLSWYSDPGLAGVSLTGGLSYKEDTKELVVAKAGVYYVFFQLELRRVVAGEGSGSVSLALHLQPLRSAAGAAALALTVDLPPASSEARNSAFGFQGRLLHLSAGQRLGVHLHTEARARHAWQLTQGATVLGLFRVTPEIPAGL
light: ENVLTQSPASLSASPGERVTITCSASSSVSYMHWYQQKPGQAPKLWIYDTSKLASGVPSRFSGSGSGNDHTLTISSMEPEDFATYYCFQGSVYPFTFGQGTKVTVLGGGGSGGGGSGGGGSGGGGSQVTLKESGPGLVQPGQTLRLTCAFSGFSLSTSGMGVGWIRQPPGKGLEWLAHIWWDDDKRYNPALKSRLTISKDTSKNQVYLQMNSLDAEDTAVYYCARMELWSYYFDYWGQGTLVTVSSGGGGSGGGGSDVVMTQSPSTLSASVGDRVTINCQASESISSWLAWYQQKPGKAPKLLIYEASKLASGVPSRFSGSGSGTEFTLTISSLQPDDFATYYCQGYFYFISRTYVNSFGGGTKVEIKRTVAAPSVFIFPPSDEQLKSGTASVVCLLNNFYPREAKVQWKVDNALQSGNSQESVTEQDSKDSTYSLSSTLTLSKADYEKHKVYACEVTHQGLSSPVTKSFNRGEC

Tests used:
[1] = target: T1, MICA on MDA-MB-231 cells (human), Q29983; test: cell-based or functional assay
[2] = target: human EGFR (human), P00533; test: BLI (Octet), GNC on AHC sensor, 100 nM antigen as analyte, 1:1 fit
[3] = target: human PD-L1 (human), Q9NZQ7; test: as above
[4] = target: human 4-1BB (human), Q07011; test: BLI (Octet), GNC on AHC sensor, 100 nM antigen as analyte, 1:1 fit; D4 is the 4-1BBL trimer

Row | Binder | TDCC EC50, MDA-MB-231 target cells [1] [pM] | Kd [2] [nM] | Kd [3] [nM] | Kd [4] [nM]
1 | B1 | 0.109 | – | – | –
2 | B2 | – | 7.48 | 0.521 | 65.5
